Measured values published in the antibiotic and cytotoxicity screens of Wong et al. (2023).
The other results are listed elsewhere or left out.

Each compound was assayed on HepG2 (assay: cytotoxicity call (relative viability < 0.9)). Conditions: 10 µM.

Row | SMILES | cytotoxicity call
1 | COc1cccc(C#Cc2ccc3c(c2)O[C@H](CN(C)C(=O)c2ccccn2)[C@H](C)CN([C@H](C)CO)S3(=O)=O)c1 | active
2 | C[C@@H]1CN([C@@H](C)CO)C(=O)c2cc(NC(=O)Nc3ccc(F)cc3)ccc2O[C@H]1CN(C)CC1CCCCC1 | inactive
3 | C[C@H](CO)N1C[C@H](C)[C@@H](CN(C)Cc2ccc3c(c2)OCO3)Oc2c(NC(=O)C3CCOCC3)cccc2C1=O | inactive
4 | Cc1noc(C)c1S(=O)(=O)Nc1ccc2c(c1)CC(=O)N([C@H](C)CO)C[C@@H](C)[C@@H](CN(C)Cc1ccc(-c3ccccc3)cc1)O2 | inactive
5 | CC(C)NC(=O)N(C)C[C@@H]1OCCCC[C@@H](C)Oc2ccc(NC(=O)Nc3cccc4ccccc34)cc2C(=O)N([C@@H](C)CO)C[C@H]1C | inactive
6 | NNC(=O)c1cccc([N+](=O)[O-])c1 | inactive
7 | Cc1noc(C)c1NC(=O)N(C)C[C@@H]1OCCCC[C@@H](C)Oc2ccc(NS(=O)(=O)c3cccs3)cc2C(=O)N([C@@H](C)CO)C[C@H]1C | inactive
8 | O=C(c1ccncc1)N1C[C@@H]2[C@H](c3ccccc31)[C@H](CO)N2C(=O)CN1CCOCC1 | inactive
9 | CCc1cccc(NC(=O)O[C@H]2[C@H](OC(=O)Nc3ccccc3-c3ccccc3)[C@H](OC(=O)Nc3ccccc3-c3ccccc3)[C@@H](OC)O[C@@H]2CO)c1 | inactive
10 | CO[C@H]1CN(C)C(=O)c2ccc(NC(=O)c3ccccc3)cc2OC[C@@H](C)N(C(=O)CN(C)C)C[C@H]1C | inactive
11 | O=C(C[C@@H]1C=C[C@H](NC(=O)CN2CCOCC2)[C@H](CO)O1)NC1CCCCC1 | inactive
12 | C[C@H]1CN([C@@H](C)CO)C(=O)Cc2cc(NS(=O)(=O)c3cccs3)ccc2O[C@@H]1CN(C)S(=O)(=O)c1ccc(F)cc1 | inactive
13 | C[C@@H]1CCCCO[C@@H](CN(C)S(=O)(=O)c2cn(C)cn2)[C@@H](C)CN([C@@H](C)CO)C(=O)c2cc(N(C)C)ccc2O1 | inactive

What follows are compounds tested on S. aureus RN4220 (assay: growth inhibition call (relative growth <= 0.2)). Conditions: 50 µM.

Row | SMILES | growth inhibition call
14 | COc1ccc(S(=O)(=O)N(C)C[C@H]2Oc3ccc(NC(=O)NC(C)C)cc3CC(=O)N([C@H](C)CO)C[C@@H]2C)cc1 | inactive
15 | COc1ccc(NC(=O)[C@H]2[C@@H](c3ccc(C)cc3)CC(=O)N2C(=O)OCc2ccccc2)c2ncccc12 | inactive
16 | O=C(N[C@@H](c1ccc(-c2ccccc2)cc1)c1cnccn1)C1CCN(Cc2ccc(Oc3ccccc3)cc2)CC1 | inactive
17 | COc1ccc(CN(C)C[C@H]2Oc3ccc(NC(=O)Cn4cnnn4)cc3C(=O)N([C@H](C)CO)C[C@@H]2C)cc1 | inactive
18 | COc1ccc(NC(=O)N(C)C[C@@H]2Oc3ccc(NC(=O)Nc4cccc5ccccc45)cc3C(=O)N([C@@H](C)CO)C[C@@H]2C)cc1 | inactive
19 | CC(C)NC(=O)N(C)C[C@H]1OCCCC[C@@H](C)Oc2ccc(NS(=O)(=O)c3cn(C)cn3)cc2C(=O)N([C@@H](C)CO)C[C@H]1C | inactive
20 | C[C@H]1CN([C@@H](C)CO)C(=O)Cc2cc(NC(=O)Nc3ccc(C(F)(F)F)cc3)ccc2O[C@@H]1CN(C)Cc1ccc(C(=O)O)cc1 | inactive
21 | CC(C)NC(=O)N(C)C[C@H]1Oc2ccc(NS(=O)(=O)c3cn(C)cn3)cc2CC(=O)N([C@H](C)CO)C[C@H]1C | inactive
22 | COCC#Cc1ccc2c(c1)O[C@@H](CN(C)S(=O)(=O)c1cccc(OC)c1)[C@@H](C)CN([C@H](C)CO)S2(=O)=O | inactive
23 | C[C@@H]1CN([C@@H](C)CO)C(=O)Cc2cc(NC(=O)Cn3cnnn3)ccc2O[C@H]1CN(C)Cc1ccc(Cl)c(Cl)c1 | inactive
24 | Nc1nc(Cl)nc2c1ncn2[C@H]1C[C@@H](O)[C@@H](CO)O1 | inactive
25 | CC(CN(C)C)CN1c2ccccc2Sc2ccccc21.O=C(O)C(O)C(O)C(=O)O (stereo not drawn) | inactive
26 | C[C@@H]1CCCCO[C@H](CN(C)C(=O)Nc2ccccc2)[C@H](C)CN([C@@H](C)CO)C(=O)c2cc(NS(=O)(=O)c3ccccc3)ccc2O1 | inactive
27 | C[C@@H]1O[C@@H](O[C@@H]2[C@@H](O)[C@H](OCCc3ccc(O)c(O)c3)O[C@H](COC(=O)/C=C/c3ccc(O)c(O)c3)[C@H]2O)[C@H](O)[C@H](O)[C@H]1O | inactive
28 | C[C@@H]1CN([C@@H](C)CO)C(=O)c2cc(NS(=O)(=O)c3ccc(Cl)cc3)ccc2O[C@@H](C)CCCCO[C@H]1CN(C)S(=O)(=O)c1ccc(F)cc1 | inactive
29 | C[C@@H]1CCCCO[C@H](CN(C)Cc2ccc(C(=O)Nc3ccccc3N)cc2)[C@@H](C)CN([C@@H](C)CO)C(=O)c2cc(NS(=O)(=O)c3ccc(Cl)cc3)ccc2O1 | inactive
30 | C[C@@H]1CCCCO[C@H](CN(C)Cc2ccc(C(F)(F)F)cc2)[C@@H](C)CN([C@H](C)CO)C(=O)c2cc(NC(=O)Nc3ccc4c(c3)OCO4)ccc2O1 | inactive
31 | C[C@@H]1CN([C@H](C)CO)C(=O)c2cc(NC(=O)Nc3ccccc3)ccc2O[C@H]1CN(C)S(C)(=O)=O | inactive
32 | Cc1ccc(-c2ccc3c(c2)O[C@@H](CN(C)C(=O)Nc2ccc(C(F)(F)F)cc2)[C@@H](C)CN([C@H](C)CO)S3(=O)=O)cc1 | inactive
33 | COC1C(O)CC(=O)OC(C)CC=CC=CC(OC2CCC(N(C)C)C(C)O2)C(C)CC(CC=O)C1OC1OC(C)C(OC2CC(C)(O)C(O)C(C)O2)C(N(C)C)C1O (stereo not drawn) | active

Row | SMILES | growth inhibition call
34 | C[C@@H]1CCCCO[C@H](CN(C)C(=O)Cc2ccccc2)[C@H](C)CN([C@@H](C)CO)C(=O)c2cc(NC(=O)Nc3ccc4c(c3)OCO4)ccc2O1 | inactive
35 | NS(=O)(=O)c1cc2c(cc1Cl)NC(C(Cl)Cl)NS2(=O)=O (stereo not drawn) | inactive
36 | CCO[C@H]1OC(C(=O)N2CCN(Cc3ccc4c(c3)OCO4)CC2)=C[C@@H](c2ccc(C(F)(F)F)cc2)[C@@H]1CCCOC(=O)NCCCCCC(=O)NO | inactive
37 | Cc1ccc(S(=O)(=O)Nc2ccc3c(c2)C(=O)N([C@H](C)CO)C[C@H](C)[C@H](CN(C)S(=O)(=O)c2c(C)noc2C)O3)cc1 | inactive
38 | COc1ccc(CN2C[C@H](C)[C@H](OC)CN(C)C(=O)c3cc(NC(=O)c4nc5ccccc5s4)ccc3OC[C@@H]2C)cc1 | inactive
39 | C[C@@H]1CN([C@@H](C)CO)C(=O)c2cccc(N(C)C)c2O[C@H]1CN(C)S(=O)(=O)c1ccc(Cl)cc1 | inactive
40 | C[C@@H]1CCCCO[C@@H](CN(C)Cc2ccc(C(F)(F)F)cc2)[C@H](C)CN([C@H](C)CO)C(=O)c2cc(NC(=O)CCCN(C)C)ccc2O1 | inactive
41 | COc1cccc(C#Cc2ccc3c(c2)O[C@H](CN(C)C(=O)c2ccccn2)[C@H](C)CN([C@H](C)CO)S3(=O)=O)c1 | inactive
42 | C[C@@H]1CN([C@@H](C)CO)C(=O)c2cc(NC(=O)Nc3ccc(F)cc3)ccc2O[C@H]1CN(C)CC1CCCCC1 | inactive
43 | C[C@H](CO)N1C[C@H](C)[C@@H](CN(C)Cc2ccc3c(c2)OCO3)Oc2c(NC(=O)C3CCOCC3)cccc2C1=O | inactive
44 | Cc1noc(C)c1S(=O)(=O)Nc1ccc2c(c1)CC(=O)N([C@H](C)CO)C[C@@H](C)[C@@H](CN(C)Cc1ccc(-c3ccccc3)cc1)O2 | inactive
45 | CC(C)NC(=O)N(C)C[C@@H]1OCCCC[C@@H](C)Oc2ccc(NC(=O)Nc3cccc4ccccc34)cc2C(=O)N([C@@H](C)CO)C[C@H]1C | inactive
46 | NNC(=O)c1cccc([N+](=O)[O-])c1 | inactive
47 | Cc1noc(C)c1NC(=O)N(C)C[C@@H]1OCCCC[C@@H](C)Oc2ccc(NS(=O)(=O)c3cccs3)cc2C(=O)N([C@@H](C)CO)C[C@H]1C | inactive
48 | O=C(c1ccncc1)N1C[C@@H]2[C@H](c3ccccc31)[C@H](CO)N2C(=O)CN1CCOCC1 | inactive
49 | CCc1cccc(NC(=O)O[C@H]2[C@H](OC(=O)Nc3ccccc3-c3ccccc3)[C@H](OC(=O)Nc3ccccc3-c3ccccc3)[C@@H](OC)O[C@@H]2CO)c1 | inactive
50 | CO[C@H]1CN(C)C(=O)c2ccc(NC(=O)c3ccccc3)cc2OC[C@@H](C)N(C(=O)CN(C)C)C[C@H]1C | inactive
51 | O=C(C[C@@H]1C=C[C@H](NC(=O)CN2CCOCC2)[C@H](CO)O1)NC1CCCCC1 | inactive
52 | C[C@H]1CN([C@@H](C)CO)C(=O)Cc2cc(NS(=O)(=O)c3cccs3)ccc2O[C@@H]1CN(C)S(=O)(=O)c1ccc(F)cc1 | inactive
53 | C[C@@H]1CCCCO[C@@H](CN(C)S(=O)(=O)c2cn(C)cn2)[C@@H](C)CN([C@@H](C)CO)C(=O)c2cc(N(C)C)ccc2O1 | inactive
